# The supplement of paper PMC12217912
# This is one part of the list. Sequences were assembled here from the parent chain. Inactive controls read about 0.05.
# B1: TEV protease; numbered along this chain (parent)
# chain: MGESLFKGPRDYNPISSSICHLTNESDGHTTSLYGIGFGPFIITNKHLFRRNNGTLVVQSLHGVFKVKDTTTLQQHLVDGRDMIIIRMPKDFPPFPQKLKFREPQREERICLVTTNFQTKSMSSMVSDTSCTFPSGDGIFWKHWIQTKDGQCGSPLVSTRDGFIVGIHSASNFTNTNNYFTSVPKNFMELLTNQEAQQWVSGWRLNADSVLWGGHKVFMVKPEEPFQPVKEATQL
# Variants of: B1
# Experiment: raw area under fraction-flipped curve 0-4 h after induction (AUC4h, not background-subtracted), DNA-recorder readout of cleavage of the substrate (dimensionless); higher = more cleavage of the substrate by the protease variant
# Conditions: temperature: 34 °C; time window: 0-4 h after rhamnose induction
# Procedure: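 In vivo DNA recorder in E. coli TOP10(DE3) ΔrhaA at 34 °C. Each TEVp single-site mutant (parent TEVp 0) is paired with a single-site variant of the 7-mer TEVs (canonical ENLYFQ|S). The substrate sits between flexible linkers in a Bxb1-sfGFP-TEVs-SsrA fusion, so cleavage stabilises Bxb1 and speeds flipping of a recombination array, read by NGS. The value is the raw area under the fraction-flipped curve over 0-4 h after rhamnose induction (AUC4h), with ≥20 reads per time point. It is not background-subtracted; inactive controls average about 0.047.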
# 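Also: Bxb1 expression induced with 0.2% (w/v) L-rhamnose at OD600 near 0.5, cultures sampled hourly, flipped fraction per protease–substrate barcode pair counted by paired-end Illumina sequencing.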
Variant,area with substrate ENLYFCS,area with substrate ENLYFES,area with substrate ENLYFFS,area with substrate ENLYFGS,area with substrate ENLYFHS,area with substrate ENLYFIS,area with substrate ENLYFKS,area with substrate ENLYFMS,area with substrate ENLYFPS,area with substrate ENLYFRS,area with substrate ENLYFWS,area with substrate ENLYFDS,area with substrate ENLYFNS,area with substrate ENLYFSS,area with substrate ENLYFTS,area with substrate ENLYFYS,area with substrate ENLYFLS,area with substrate ENLYFVS
MGESLFKGPRDYNPISSSICHLTNESDGHTTSLYGIGFGPFIITNKHLFRRNNGTLVVQSLHGVFKVKDTTTLQQHLVDGRDMIIIRMPKDFPPFPQKLKFREPQREERICLVTTNFQTKSMSSMVSDTSCTFPSGFGIFWKHWIQTKDGQCGSPLVSTRDGFIVGIHSASNFTNTNNYFTSVPKNFMELLTNQEAQQWVSGWRLNADSVLWGGHKVFMVKPEEPFQPVKEATQL [D137F],0.0581,0.0653,0.0694,0.0482,0.0152,0.0521,0.0678,0.0649,0.0614,0.0581,0.0479,–,–,–,–,–,–,–
MGESLFKGPRDYNPISSSICHLTNESDGHTTSLYGIGFGPFIITNKHLFRRNNGTLVVQSLHGVFKVKDTTTLQQHLVDGRDMIIIRMPKDFPPFPQKLKFREPQREERICLVTYNFQTKSMSSMVSDTSCTFPSGDGIFWKHWIQTKDGQCGSPLVSTRDGFIVGIHSASNFTNTNNYFTSVPKNFMELLTNQEAQQWVSGWRLNADSVLWGGHKVFMVKPEEPFQPVKEATQL [T115Y],0.0598,0.0641,–,–,0.0509,0.0693,–,0.0707,0.0556,0.0658,0.0592,0.0626,0.0779,–,–,–,–,–
MGESLFKGPRDYNPISSSICHLTNESDGHTTSLYGIGFGPFIITNKHLFRRNNGTLVVQSLHGVFKVKDTTTLQQHLVDGRDMIIIRMPKDFPPFPQKLKFREPQREERICLVTTNFQTKSMSSMVSDTSCCFPSGDGIFWKHWIQTKDGQCGSPLVSTRDGFIVGIHSASNFTNTNNYFTSVPKNFMELLTNQEAQQWVSGWRLNADSVLWGGHKVFMVKPEEPFQPVKEATQL [T132C],0.0497,0.0709,0.0643,0.0569,0.0558,0.0608,–,0.0623,–,0.0687,–,–,0.0485,0.0617,0.0502,–,–,–
MGESLFKGPRDYNPISSSICHLTNESDGHTTSLYGIGFGPFIITNKHLFRRNNGTLVVQSLHGVFKVKDTTTLQQHLVDGRDMIIIRMPKDFPPFPQKLKFREPQREERICLVTTNFQTKSMSSMVSDTSCEFPSGDGIFWKHWIQTKDGQCGSPLVSTRDGFIVGIHSASNFTNTNNYFTSVPKNFMELLTNQEAQQWVSGWRLNADSVLWGGHKVFMVKPEEPFQPVKEATQL [T132E],0.0509,0.0602,0.0724,0.0717,0.0691,0.0506,0.0606,0.06,0.05,0.0457,0.0581,–,0.0485,0.0515,0.0615,0.0593,–,–
MGESLFKGPRDYNPISSSICHLTNESDGHTTSLYGIGFGPFIITNKHLFRRNNGTLVVQSLHGVFKVKDTTTLQQHLVDGRDMIIIRMPKDFPPFPQKLKFREPQREERICLVTTNFQTKSMSSMVSDTSCTFPSGDGIFWKHWIVTKDGQCGSPLVSTRDGFIVGIHSASNFTNTNNYFTSVPKNFMELLTNQEAQQWVSGWRLNADSVLWGGHKVFMVKPEEPFQPVKEATQL [Q146V],0.0578,0.0614,0.0685,–,0.0838,0.055,0.068,–,0.0642,0.0655,–,0.0556,0.0646,0.0626,0.0682,–,0.0519,0.0519
MGESLFKGPRDYNPISSSICHLTNESDGHTTSLYGIGFGPFIITNKHLFRRNNGTLVVQSLHGVFKVKDTTTLQQHLVDGRDMIIIRMPKDFPPHPQKLKFREPQREERICLVTTNFQTKSMSSMVSDTSCTFPSGDGIFWKHWIQTKDGQCGSPLVSTRDGFIVGIHSASNFTNTNNYFTSVPKNFMELLTNQEAQQWVSGWRLNADSVLWGGHKVFMVKPEEPFQPVKEATQL [F95H],0.0505,0.0575,0.0661,–,0.0508,0.0489,0.0507,0.0541,0.0566,–,0.057,–,0.0599,–,0.0601,0.0521,–,0.0072
MGESLFKGPRDYNPISSSICHLTNESDGHTTSLYGIGFGPFIITNKHLFRRNNGTLVVQSLHGVFKVKDTTTLQQHLVDGRDMIIIRMPKDFPPFPQKLKFREPQREERICLVTTYFQTKSMSSMVSDTSCTFPSGDGIFWKHWIQTKDGQCGSPLVSTRDGFIVGIHSASNFTNTNNYFTSVPKNFMELLTNQEAQQWVSGWRLNADSVLWGGHKVFMVKPEEPFQPVKEATQL [N116Y],0.0644,–,0.0725,–,–,0.0545,–,0.0765,0.0582,0.0844,0.0638,0.0592,0.0538,–,0.0669,0.0826,0.0653,0.0642
MGESLFKGPRDYNPISSSICHLTNESDGHTTSLYGIGFGPFIITNKHLFRRNNGTLVVQSLHGVFKVKDTTTLQQHLVDGRDMIIIRMPKDFPPFPQKLKFREPQREERICLVTTNFQTKSMSSMVSDTSCTFPSGDGIFWKHWIQTKDGYCGSPLVSTRDGFIVGIHSASNFTNTNNYFTSVPKNFMELLTNQEAQQWVSGWRLNADSVLWGGHKVFMVKPEEPFQPVKEATQL [Q151Y],0.0636,0.0741,0.076,–,0.055,0.0557,0.0678,0.063,0.0472,0.0855,0.0573,0.041,0.0608,0.0472,0.0447,0.0566,0.0633,–
MGESLFKGPRDYNPISSSICHLTNESDGHTTSLYGIGFGPFIITNKHLFRRNNGTLVVQSLHGVFKVKDTTTLQQHLVDGRDMITIRMPKDFPPFPQKLKFREPQREERICLVTTNFQTKSMSSMVSDTSCTFPSGDGIFWKHWIQTKDGQCGSPLVSTRDGFIVGIHSASNFTNTNNYFTSVPKNFMELLTNQEAQQWVSGWRLNADSVLWGGHKVFMVKPEEPFQPVKEATQL [I85T],0.0774,–,0.0589,–,–,0.043,–,0.0318,0.0513,0.0531,0.054,–,0.057,0.0465,0.0458,–,0.0617,–
